Measured values as given in PubChem BioAssay AID588855 (National Center for Advancing Translational Sciences (NCATS), 2011).
Screen size: about 410,000 compounds; about 5,000 (1.2%) were called active. Inconclusive results, whose numbers are uncertain, are shown with a selection of clear calls. Calls follow the shape of the dose curve; as a rule, active = well fitted inhibition curve with a large enough effect; inconclusive = small, poorly fitted or top-dose-only effect; inactive = no such curve, though single readings can be large or run the other way. Potencies beside an inconclusive call are fits to weak or partial responses and may not hold up.

Experiment: qHTS for Inhibitors of TGF-b; also: nearly all actives have a fitted effect of over 65% in size
Details: HepG2 CAGA-GFP TGF-b/SMAD3 reporter, GFP fluorescence, 18 h, TGF-beta stimulated, 500 pg/mL final; series mostly up to 46.1 µM
In short: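 Smad-responsive CAGA-GFP expression was quantified in HEPG2 cells exposed to compounds and 500 pg/mL final TGF-beta for 18 h at 37 degrees C; unstimulated wells defined full inhibition.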
Potency is read from the fitted curve at half-maximal effect; tags tell the direction and shape of the fitted curve.

Row | SMILES | Potency
1 | CCc1ccc(S(=O)(=O)Nc2ccc3oc(C)c(C(=O)OCCOC)c3c2)cc1 | inconclusive: 25.1 µM [inhibitor, single point]
2 | C/C(=N\NC(=O)c1ccccc1F)c1ccc2c(c1)Nc1ccccc1S2 | inconclusive: 0.199 µM [inhibitor, full curve, poor fit]
3 | COc1cccc(C2c3[nH]c4ccccc4c3CCN2C(=O)c2ccccc2F)c1OC (stereo unspecified) | inconclusive: 35.5 µM [inhibitor, single point]
4 | Cc1ccc(S(=O)(=O)N[C@@H](CC(C)C)C(=O)NCc2ccco2)cc1 | inconclusive: 7.08 µM [inhibitor, partial curve, poor fit]
5 | CCC(C)NS(=O)(=O)c1ccc(S(=O)(=O)N(CC(=O)Nc2ccccc2)Cc2ccco2)cc1 (stereo unspecified) | inconclusive: 20 µM [inhibitor, single point]
6 | Cc1ccc2c(c1)-c1onc(C(=O)N(C)c3ccc(F)cc3)c1CO2 | inactive
7 | CC1=C(C)NC(=S)SC1 | inconclusive: 1.26 µM [inhibitor, full curve, poor fit]
8 | CCOC(=O)C1(Cc2ccc(OC)cc2)CCN(C(=O)c2ccc3[nH]ccc3c2)CC1 | inconclusive: 12.6 µM [inhibitor, partial curve, poor fit]
9 | COc1ccc(N2CCN(C(=O)c3cccnc3SCc3cccc(Br)c3)CC2)cc1 | inconclusive: 35.5 µM [inhibitor, single point]
10 | COc1ccc(C(=O)c2no[n+]([O-])c2C(=O)c2ccc(OC)cc2)cc1 | inconclusive: 35.5 µM [inhibitor, single point]
11 | COC(=O)COc1ccc(-c2nccc(-c3ccc(Br)cc3)n2)cc1 | inactive
12 | O=C(CCNc1cc(Cl)cc(Cl)c1)c1ccco1 | inactive
13 | Cc1nc2ccccc2c(=O)n1-c1ccc(NS(=O)(=O)c2ccc(F)cc2F)cc1 | inconclusive: 35.5 µM [inhibitor, single point]
14 | COc1ccc(N(C)S(=O)(=O)c2ccc(Cl)c(C(=O)NNC(=O)c3ccccc3O)c2)cc1 | inconclusive: 35.5 µM [inhibitor, partial curve, poor fit]
15 | COc1c(OC(C)=O)ccc(/C=C/c2ccc3cccc(OCc4ccccc4)c3n2)c1[N+](=O)[O-] | inconclusive: 35.5 µM [inhibitor, single point]
16 | COC(=O)c1cc(NC(=O)CCc2c(C)nc3nc(C)nn3c2C)cc(C(=O)OC)c1 | inactive
17 | CCOC(=O)c1c(C)oc2cc(Sc3ccccc3)c(O)c(O)c12 | active: 10 µM
18 | O=C(Cc1ccc(F)cc1)NCCc1csc2nc(-c3ccc(Cl)cc3)nn12 | inconclusive: 35.5 µM [inhibitor, single point]
19 | CCOC(=O)c1ccc(NC(=O)c2cc3ccccc3o2)cc1 | inconclusive: 0.708 µM [inhibitor, full curve, poor fit]
20 | O=C(/C=C/c1ccc(O)c([N+](=O)[O-])c1)c1ccc2ccccc2c1 | inconclusive: 35.5 µM [inhibitor, single point]
21 | CCC(C)(C)n1nnnc1C(CC(C)C)N1CCC(C(N)=O)CC1 (stereo unspecified) | inactive

Row | SMILES | Potency
22 | COc1ccc(/C=C2/SC(=S)N(CCCC(=O)N3CCN(C)CC3)C2=O)cc1 | inconclusive: 35.5 µM [inhibitor, single point]
23 | Cc1cccc(-c2ccc3c(c2)C2CC3CCN2C)c1 (stereo unspecified) | inactive
24 | CC(C)(CN1CCN(Cc2ccccc2)CC1)NS(=O)(=O)c1ccccc1 | inactive
25 | O=c1[nH]cc(CCCc2ccccc2)c(=O)[nH]1 | inactive
26 | Cc1cc2occ(CC(=O)NNC(=O)c3ccccc3F)c2cc1C | inconclusive: 1.78 µM [inhibitor, partial curve, poor fit]
27 | O=C(COc1ccc(/C=N/NS(=O)(=O)c2ccccc2)cc1)Nc1cccc(Cl)c1 | inconclusive: 0.794 µM [inhibitor, full curve, poor fit]
28 | O=Nc1c(O)[nH]c2ccc(Cl)cc12 | inactive
29 | O=C(O)c1ccccc1NS(=O)(=O)c1ccc(NN=Cc2cccc(Cl)c2)c([N+](=O)[O-])c1 | inconclusive: 20 µM [inhibitor, single point]
30 | OC(COc1ccc(F)cc1Cl)CN1CCC(Cc2ccccc2)CC1 (stereo unspecified) | inconclusive: 22.4 µM [inhibitor, single point]
31 | COc1ccccc1CN(C)C(=O)c1cccc(S(=O)(=O)N2CCCc3ccccc32)c1 | inactive
32 | CC(C)(C)OC(=O)NCc1ccc(CNC(=O)c2[nH]cnc2C(=O)N[C@@H](Cc2ccccc2)C(=O)OCc2ccccc2)cc1 | inconclusive: 20 µM [inhibitor, single point]
33 | COc1cc(CC(=O)Nc2nc(-c3ccccc3)c(C(C)=O)s2)cc(OC)c1OC | inconclusive: 7.08 µM [inhibitor, partial curve, poor fit]
34 | COc1cc(NC(=O)C2CCN(S(=O)(=O)c3c(C)noc3/C=C/c3c(C)cc(C)cc3C)CC2)cc(OC)c1 | inconclusive: 20 µM [inhibitor, partial curve, poor fit]
35 | CC12CCC=CC1C(c1cccc([N+](=O)[O-])c1)N(Cc1ccccc1)C2=O (stereo unspecified) | inconclusive: 35.5 µM [inhibitor, single point]
36 | COc1ccc(S(=O)(=O)N2CCOC2CNC(=O)C(=O)NCCc2ccc(OC)c(OC)c2)cc1 (stereo unspecified) | inconclusive: 22.4 µM [inhibitor, partial curve, poor fit]
37 | O=C(CCc1nc(-c2ccccc2F)no1)NCCN1CCN(Cc2ccccc2)CC1 | inconclusive: 5.62 µM [inhibitor, single point]
38 | Cc1csc(N/N=C/c2c(F)cccc2Cl)n1 | inconclusive: 5.62 µM [inhibitor, full curve, poor fit]
39 | O=C(CCc1nnc2ccc(NCc3ccco3)nn12)Nc1ccc(F)cc1F | inconclusive: 14.1 µM [inhibitor, single point]
40 | COC(=O)COc1ccc(S(=O)(=O)Nc2ccc3c(c2)OCO3)cc1Cl | inconclusive: 35.5 µM [inhibitor, single point]
41 | Cc1cc(N)cc(C)c1-c1c(Br)cc(N)cc1Br | inconclusive: 12.6 µM [inhibitor, single point]
